# Test results taken from PubChem BioAssay (NCATS).
# The other results are listed elsewhere or left out. Further columns of the screen follow, without active or inactive calls. The list favours compounds with an active or inconclusive main result. Words in brackets tell the shape of the fitted curve; partial curves, single points and poor fits give uncertain potencies.
# Test: Cell-based coincidence reporter assay to measure PMP22 gene transcription in S16 Pmp22-F2sN cells - Confirmatory screen (AID 1508646)
# Conditions: S16 Schwann cells Pmp22-F2sN, dual luciferase, 24 h; measured here: FLuc reporter channel
# Source text: Assay Provider: Jim Inglese Ph.D. National Center for Advancing Translational Science, National Institutes of Health, Rockville, MD CMT is a heterogeneous group of neurological disorders that affect approximately 1 in 2,500 people. In particular, the most common form of CMT, CMT1A is genetically linked to the duplication of the PMP22 gene which leads to Schwann cell overexpression, thus manifesting itself as a typical case of dose-sensitive diseases. To identify small molecule compounds that can mediate the expression of PMP22 we developed a phenotypic assay screening strategy by utilizing genome editing techniques to construct Schwann cell lines containing novel reporter technology to monitor the transcriptional or translational regulation of PMP22. For high sensitivity we use a bioluminescent reporter system embedded in the 3' UTR of the PMP22 gene (S16(c9) Pmp22-F2sN) to identify compounds that inhibit gene expression. […] We can further discriminate the effect of all transcriptionally active molecules on PMP22 translation or stability with an assay that incorporates a short NLuc peptide (HiBiT) at the C-terminus of expressed PMP22 (S16(f8) PMP22-HiBiT) allowing alpha complementation and luminescence detection of membrane-associated PMP22 protein. These assays were screened against the NCATS Sytravon Library Collection. Miniaturization of these assays to 1536-well plate format for quantitative high throughput screening (qHTS) yielded rich data sets immediately from the qHTS assay (S16(c9) Pmp22-F2sN), when compared with data from a cell viability assay (Cell TiterGlo) to identify compounds that decreased the output signals through cellular toxicity to streamline the selection process of actives for subsequent characterization using the HiBiT assay (S16(f8) PMP22-HiBiT).
# Cell-based coincidence reporter assay to measure PMP22 gene transcription in S16 Pmp22-F2sN cells PROTOCOL TABLE (format as described by Inglese J, Shamu CE and Guy RK. 2007) SEQUENCE No. (e.g., 1, 2, 3, etc.); PARAMETER (e.g., Cells, Incubation, Reagent, etc.); VALUE and DESCRIPTION. 1. Cells. Add 500-1,000 cells in 4 uL in growth media (DMEM High Glucose, No Phenol Red media + 10% heat-inactivated FBS + 1% Pen/Strep supplemented media) per well into Greiner 1536-well white/solid bottom high base, TC-treated plates. 2. Compounds. Library compounds and controls added at 23nL per well, transferred by Pin Tool. 3. Incubation. Incubate plates at 37C, 5% CO2, 95% RH for 24 h. 4. Reagent. Add 3.5uL Nano-Glo Dual-Luciferase Reporter Assay System reagent 1: Lysis and FLuc reagent per well of Greiner 1536-well plates. 5. Incubation. Incubate plates at room temperature for 10 min., protect from light. 6. Detector. FLuc luminescence measured using CCD-based camera (Viewlux). 7. Reagent. Add 3.5uL Nano-Glo Dual-Luciferase Reporter Assay System reagent 2: Stop&Glo reagent per well of Greiner 1536-well plates. 8. Incubation. Incubate plates at room temperature for 10 min., protect from light. 9. Detector. NLuc luminescence measured using CCD-based camera (Viewlux). NOTES (numbers refer to Sequence numbers above; values are from representative experiments) 6. Luminescence Read #1 (FLuc): Clear filter; Exposure = 10 sec, Gain = High, Speed = Slow, Binning = 2X 9. Luminescence Read #2 (NLuc): Clear filter; Exposure = 1 sec, Gain = High, Speed = Slow, Binning = 2X REFERENCES: 1. Inglese J, Shamu CE and Guy RK, Reporting data from high throughput screening of small molecule libraries, Nature Chemical Biology, 2007, 3(8): 438-441. doi.org/10.1038/nchembio0807-438 2. Yasgar A, Shinn P, Jadhav A, Auld DS, Michael S, Zheng W, Austin CP, Inglese J and Simeonov A, Compound Management for Quantitative High-Throughput Screening. J. Assoc. Lab. Auto., 2008, 13: 79-89. doi: 10.1016/j.jala.2007.12.004
# Tags describe the fitted curve by direction and shape.
row,Compound,AC50
1,Cc1ccccc1-n1c(SCC(=O)c2ccccc2)nnc1-c1ccc(F)cc1,"27.3 µM [falling, single point]"
2,O=C(COc1ccc(F)cc1)Nc1ccc2nc(SCc3ccccc3)sc2c1,"15.3 µM [rising, single point]"
3,COC(=O)c1c(-c2ccc(Cl)cc2)noc1N1CCN(c2cccc(OC)c2)CC1,"10.9 µM [falling, full curve]"
4,CC(=O)OCC#CCSc1nnc(-c2cccc(Br)c2)o1,"6.11 µM [falling, full curve, poor fit]"
5,Cc1cc(Br)cc2c1N(Cc1ccccc1OC(C)C)C(=O)C2=O,"15.3 µM [falling, partial curve]"
6,O=C(NCCc1ccc(Cl)cc1)c1ccc(Cn2c(=O)[nH]c3ccccc3c2=O)cc1,"21.7 µM [falling, partial curve]"
7,CCOc1ccc(NC(=O)c2cc3sc(Cl)cc3n2CC)cc1,"30.6 µM [falling, single point]"
8,Cc1cccc(-n2c(=O)c3c(c4cc(C)ccc4n3C)n(CC(=O)NCCC3=CCCCC3)c2=O)c1,"17.2 µM [falling, partial curve]"
9,CC1=Nc2cc(C(=O)NCCc3ccccc3)ccc2Sc2c(C)ccc(C)c21,"8.62 µM [falling, full curve, poor fit]"
10,Cc1[nH]c2ccccc2c1C1(O)C(=O)N(Cc2ccccc2)c2ccc(Cl)cc21 (stereo unspecified),"24.3 µM [falling, partial curve]"
11,COc1ccc(NC(=O)Cn2c(=O)n(CCC(=O)NCc3ccccc3OC)c(=O)c3ccccc32)cc1Cl,"13.7 µM [falling, full curve]"
12,Cc1ccc(-n2nc3c(N4CCC(C(=O)NCCc5ccccc5C)CC4)nnc(C)c3c2C)cc1,"19.3 µM [falling, partial curve]"
13,Cc1ccc(CNC(=O)c2nc(S(=O)(=O)Cc3ccc(C)cc3)ncc2Cl)cc1,"15.3 µM [falling, partial curve]"
14,COc1nnc(-c2ccc(N3CCCCC3)c(NC(=O)c3ccc(Cl)cc3)c2)c2ccccc12,"24.3 µM [falling, single point]"
15,COc1ccccc1Nc1c2c(nc3ccc(NC(=O)/C=C/c4cc(OC)c(OC)c(OC)c4)cc13)CCCC2,"12.2 µM [falling, full curve]"
16,COc1ccc(NC(=O)Cn2c(=O)n(-c3cccc(C)c3)c(=O)c3c2c2cc(C)ccc2n3C)cc1Cl,"19.3 µM [falling, partial curve]"
17,CCOC(=O)c1cc(NC(=O)c2ccccc2)c(=O)n2c1oc1ccc(Cl)cc12,"5.44 µM [falling, partial curve, poor fit]"
18,Cc1cccc(N2CCN(C(=O)C3CCCN(S(=O)(=O)c4ccc5c(c4)oc(=O)n5C)C3)CC2)c1C (stereo unspecified),"21.7 µM [falling, partial curve]"
19,Cc1ccc(NS(=O)(=O)c2ccc3[nH]c4c(c3c2)CCCC4)cc1N(C)C,"19.3 µM [falling, partial curve, poor fit]"

# Same assay, conditions: S16 Schwann cells Pmp22-F2sN, dual luciferase, 24 h; measured here: NLuc reporter channel
row,Compound,AC50
1,Cc1ccccc1-n1c(SCC(=O)c2ccccc2)nnc1-c1ccc(F)cc1,"21.7 µM [falling, partial curve]"
2,O=C(COc1ccc(F)cc1)Nc1ccc2nc(SCc3ccccc3)sc2c1,"43.2 µM [falling, single point]"
3,COC(=O)c1c(-c2ccc(Cl)cc2)noc1N1CCN(c2cccc(OC)c2)CC1,"12.2 µM [falling, partial curve]"
4,CC(=O)OCC#CCSc1nnc(-c2cccc(Br)c2)o1,"19.3 µM [falling, partial curve]"
5,Cc1cc(Br)cc2c1N(Cc1ccccc1OC(C)C)C(=O)C2=O,"13.7 µM [falling, partial curve]"
6,Cc1ccc(NC(=O)CSc2nc(-c3ccco3)cc(C(F)(F)F)n2)cc1,"7.69 µM [falling, partial curve, poor fit]"
7,O=C(NCCc1ccc(Cl)cc1)c1ccc(Cn2c(=O)[nH]c3ccccc3c2=O)cc1,"24.3 µM [falling, partial curve]"
8,CCOc1ccc(NC(=O)c2cc3sc(Cl)cc3n2CC)cc1,"21.7 µM [falling, partial curve, poor fit]"
9,Cc1cccc(-n2c(=O)c3c(c4cc(C)ccc4n3C)n(CC(=O)NCCC3=CCCCC3)c2=O)c1,"17.2 µM [falling, partial curve]"
10,CC1=Nc2cc(C(=O)NCCc3ccccc3)ccc2Sc2c(C)ccc(C)c21,"6.85 µM [falling, partial curve]"
11,O=C(NCCc1ccccc1Cl)C1CCN(c2nc3ccccc3nc2C(F)(F)F)CC1,"43.2 µM [falling, single point]"
12,Cc1[nH]c2ccccc2c1C1(O)C(=O)N(Cc2ccccc2)c2ccc(Cl)cc21 (stereo unspecified),"24.3 µM [falling, partial curve]"
13,COc1ccc(NC(=O)Cn2c(=O)n(CCC(=O)NCc3ccccc3OC)c(=O)c3ccccc32)cc1Cl,"12.2 µM [falling, full curve]"
14,CCOc1ccc(/C=C/c2nc(C#N)c(NCc3ccccc3)o2)cc1,"19.3 µM [falling, partial curve, poor fit]"
15,Cc1ccc(-n2nc3c(N4CCC(C(=O)NCCc5ccccc5C)CC4)nnc(C)c3c2C)cc1,"27.3 µM [falling, partial curve]"
16,Cc1ccc(CNC(=O)c2nc(S(=O)(=O)Cc3ccc(C)cc3)ncc2Cl)cc1,"19.3 µM [falling, partial curve]"
17,COc1nnc(-c2ccc(N3CCCCC3)c(NC(=O)c3ccc(Cl)cc3)c2)c2ccccc12,"43.2 µM [falling, partial curve, poor fit]"
18,COc1ccccc1Nc1c2c(nc3ccc(NC(=O)/C=C/c4cc(OC)c(OC)c(OC)c4)cc13)CCCC2,"12.2 µM [falling, full curve]"
19,COc1ccc(NC(=O)Cn2c(=O)n(-c3cccc(C)c3)c(=O)c3c2c2cc(C)ccc2n3C)cc1Cl,"7.69 µM [falling, partial curve, poor fit]"
20,CCOC(=O)c1cc(NC(=O)c2ccccc2)c(=O)n2c1oc1ccc(Cl)cc12,"4.85 µM [falling, full curve]"
21,Cc1cccc(N2CCN(C(=O)C3CCCN(S(=O)(=O)c4ccc5c(c4)oc(=O)n5C)C3)CC2)c1C (stereo unspecified),"24.3 µM [falling, partial curve]"
22,Cc1ccc(NS(=O)(=O)c2ccc3[nH]c4c(c3c2)CCCC4)cc1N(C)C,"21.7 µM [falling, partial curve]"
